The values that follow come from PubChem BioAssay AID488969 (Vanderbilt High Throughput Screening Facility, 2010).

The full ranking holds about 110,000 compounds; the median of “z-score” is about -0.1, and the highest 2% start at about 2. The list shows a part of the results. The source made the active and inactive calls.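 How the source made its calls: active means z-score in the third read window above 3 or below -3; inactive means the rest.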

The target of the test is Metabotropic glutamate receptor 8 (Rattus norvegicus) (UniProt P70579). Put plainly: rat mGluR8 modulators via GIRK flux, primary screen, cell-based, thallium flux, HTS (AID 488969). The settings on record: HEK293 rat mGluR8, GIRK (G protein-gated inwardly rectifying potassium channel) thallium flux, FluoZin2; at 10 µM; stronger effect = higher value; submaximal glutamate (EC20) added with thallium.
Chain of UniProt P70579 (P70579 whole entry, looked up): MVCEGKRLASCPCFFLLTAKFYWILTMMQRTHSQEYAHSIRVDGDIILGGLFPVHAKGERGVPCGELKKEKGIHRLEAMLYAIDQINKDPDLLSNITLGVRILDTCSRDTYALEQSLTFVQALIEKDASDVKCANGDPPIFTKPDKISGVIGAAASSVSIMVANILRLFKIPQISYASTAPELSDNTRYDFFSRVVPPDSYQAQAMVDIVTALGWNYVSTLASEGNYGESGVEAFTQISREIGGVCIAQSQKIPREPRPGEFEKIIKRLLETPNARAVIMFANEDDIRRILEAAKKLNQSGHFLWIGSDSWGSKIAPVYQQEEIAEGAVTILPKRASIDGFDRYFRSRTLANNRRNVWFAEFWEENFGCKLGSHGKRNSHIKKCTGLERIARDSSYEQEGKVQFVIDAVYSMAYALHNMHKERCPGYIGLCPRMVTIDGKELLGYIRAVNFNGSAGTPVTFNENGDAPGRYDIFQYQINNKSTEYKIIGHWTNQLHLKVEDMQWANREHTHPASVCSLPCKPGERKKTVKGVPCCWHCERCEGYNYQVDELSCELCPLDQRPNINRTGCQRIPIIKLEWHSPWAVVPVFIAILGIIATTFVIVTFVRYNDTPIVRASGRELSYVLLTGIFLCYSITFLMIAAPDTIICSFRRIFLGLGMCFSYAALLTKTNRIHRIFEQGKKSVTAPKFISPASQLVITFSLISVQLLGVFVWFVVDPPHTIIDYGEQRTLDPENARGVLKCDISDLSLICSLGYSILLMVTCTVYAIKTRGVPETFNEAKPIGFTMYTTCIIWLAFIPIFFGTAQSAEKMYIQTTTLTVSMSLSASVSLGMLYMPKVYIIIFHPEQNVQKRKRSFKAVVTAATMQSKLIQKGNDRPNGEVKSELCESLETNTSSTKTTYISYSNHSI
As to `O=C1CCC(=O)N1CCCCCc1nc(-c2ccccc2)no1`, the z-score was 0.0731.

`CCC(C)NC(=O)C(Cc1ccccc1)NS(=O)(=O)c1cccc2nsnc12` (stereo not given) had a z-score of 0.341.

For the compound `CCN(CC#CCC1(O)c2ccccc2-c2ccccc21)CCO`, the z-score was determined as 0.104.

Take `CC(=O)N[C@H]1C[C@@H]1c1ccccc1`: the z-score stood at 0.567.

As for `O=C1CC(c2ccccc2)CC(O)=C1C=NCCN1CCN(C(=S)Nc2cccc(Cl)c2)CC1` (stereo not given), the z-score is -1.85.

Compound `COc1ccc(Br)cc1S(=O)(=O)n1ccnc1C` had a z-score of 0.214.

As to `NC(=O)NC(c1ccccc1)c1ccccc1F` (stereo not given), the z-score is -0.121.

With `Cc1ccc(Cl)cc1N1CCN(C(=O)CN(C2CCCCC2)S(C)(=O)=O)CC1`, the z-score is -0.0779.

For `COc1ccc(C2=CC(c3ccc(C)cc3)n3nnnc3N2)cc1` (stereo not given), the z-score was -1.18.

With `O=c1c2ccccc2nc2n1-c1ccccc1CCC2`, the z-score was -0.0901.

Regarding `CCOc1cc2c(cc1OCC)C(C(=O)O)C(c1ccc(OC)c(O)c1)N(C)C2=O` (stereo not given), the z-score was found to be 0.478.

As to `CCn1c(=NC(=O)CSC(C)=O)sc2cc(F)ccc21`, the z-score was 0.658.

The compound `Cn1nnc2cc(NC(=O)NCc3ccc4c(c3)OCO4)ccc21` gave a z-score of 0.331.

With `CCOC(=O)CN1C(=O)C(O)(CC(=O)c2ccc3c(c2)CCCC3)c2ccccc21` (stereo not given), the z-score is -0.0925.

Take `O=C1c2[nH]nc(-c3ccccc3O)c2C(c2cccc(Cl)c2)N1CC1CCCO1` (stereo not given): the z-score is -0.455.

For `O=C(CSc1nnc(-c2ccc(O)cc2)n1Cc1ccccc1)NNC(=O)c1ccc(Br)cc1`, the z-score is -0.325.

On to `C=CCNC(=O)c1c(Cl)cccc1Cl`, for which the z-score was -0.161.

`Nc1nnc(SCC(=O)NC2CCCCC2)n1-c1ccccc1`: the z-score was -0.414.

With `CCOc1ccc(NC(=O)COc2ccc(C(=O)NCCc3ccccc3)cc2)cc1`, the z-score is -0.0849.

In the case of `COc1ccc(C(=O)Nc2cccc(/C(C)=N/NC(=O)c3ccc([N+](=O)[O-])cc3)c2)cc1OC`, the z-score amounted to 0.147.

Turning to `COc1ccc(-n2ccnc2SCC(=O)Nc2ccccc2)cc1`, the z-score is -0.308.

The compound `COc1ccc(C)cc1NC(=O)CN1CCN(c2ccc(F)cc2)CC1` had a z-score of 0.284.

In the case of `Cc1ccc(CN2C(=O)CCC2C(=O)NCc2cccnc2)cc1` (stereo not given), the z-score turned out to be 0.00884.

Take `Cc1ccc(NC(=O)COC(=O)C2CC2)c(Br)c1`: the z-score is -0.43.

Consider `COC(=O)c1ccc(CSc2nc3ccccc3o2)cc1`, for which the z-score worked out at 1.01.

Regarding `COc1ccccc1NS(=O)(=O)c1cc(N/C(=N\S(=O)(=O)c2ccccc2)c2ccc(F)cc2)ccc1Cl`, the z-score is -0.834.

For `CCN(CC(=O)Nc1cccc(OC)c1)c1ncnc2sc(C)c(C)c12`, the z-score was -0.125.

For `CC(=O)N1c2c(ccc3ccccc23)C(C)CC12CCCCC2` (stereo not given), the z-score is -0.635.

With `CC1CCCN(S(=O)(=O)c2ccc(S(=O)(=O)NC(C)c3cccs3)cc2)C1` (stereo not given), the z-score is -0.136.

Consider `O=C(O)CCCCCN1C(=O)C(=O)/C(=C(/O)c2ccccc2)C1c1ccccc1` (stereo not given), for which the z-score is -0.0105.

Take `COc1cccc(CNCCOCCO)c1OC`: the z-score is -0.424.

For `O=C(NCCSCc1ccco1)Nc1cccc(Cl)c1`, the z-score was determined as 1.01.

In the case of `Cc1cc(-n2c(C)cc(C(=O)CSc3ccc4c(c3)OCCO4)c2C)no1`, the z-score is -0.827.

As for `O=C(NC1CCCCC1)c1ccccc1NC(=O)C1CC(=O)N(c2ccc(Cl)cc2)C1` (stereo not given), the z-score is -0.252.

`Cc1oc2cc(OCC(=O)O)ccc2c(=O)c1Oc1ccccc1`: the z-score was -0.155.

As for `COc1ccc(C(=O)CSc2nc3cccnc3n2C)cc1`, the z-score is -0.0303.

Consider `CC(C)N(C(=O)c1ccccc1-c1ccccc1)C(C)C`, for which the z-score was -0.685.

Regarding `CSc1nc2ccc(S(=O)(=O)NC3CCCCC3)cc2s1`, the z-score was -1.02.

Take `COc1ccc(N=CC2=C(Nc3ccc(OC)cc3)c3c(C)nn(-c4ccccn4)c3CC2)cc1`: the z-score is -0.399.

As to `Cc1cc(NS(=O)(=O)c2ccc(NC(=O)c3oc4ccccc4c3C)cc2)no1`, the z-score was determined as 0.155.

For the compound `COc1ccc(CCN2C(=O)CC(NCCc3ccc(S(N)(=O)=O)cc3)C2=O)cc1OC` (stereo not given), the z-score was -0.0698.

On to `O=C(COc1ccccc1Cl)NCCC1=CCCCC1`, for which the z-score is -0.184.

On to `Cc1oc(-c2cccc(Cl)c2)nc1CN1CCC(C(=O)NCc2ccco2)CC1`, for which the z-score is active: -4.86.

For the compound `O=c1[nH]c2c(s1)C(c1ccccc1)C1C3CCC(C3)C1S2` (stereo not given), the z-score was -0.0102.

For `Cn1cccc1/C=C1\SC(=S)N(NC(=O)c2ccccc2Cl)C1=O`, the z-score was -0.429.

`CCOc1c(C(=O)CC)cc2c(C)cc(=O)oc2c1C` returned a z-score of 1.63.

On to `N#CC1(c2ccccc2)CCCN1C(=O)c1ccccc1Br` (stereo not given), for which the z-score was -0.0974.

Turning to `Cc1cc(C)c(S(=O)(=O)NCc2ccc3c(c2)cc(C)n3C)c(C)c1`, the z-score was 0.371.

Take `CCOC(=O)C1CN(S(=O)(=O)c2ccc(C)cc2)CCN1S(=O)(=O)c1ccc(C)cc1` (stereo not given): the z-score is 0.487.

Regarding `CC1CCC(NC(=O)c2cnccn2)CC1` (stereo not given), the z-score was determined as 0.438.

Regarding `Cc1c(N=C/C=C/c2ccccc2)c(=O)n(-c2ccccc2)n1C`, the z-score was -0.166.

Consider `COc1ccc(C2NCCc3c2[nH]c2ccccc32)cc1COc1ccc(F)cc1` (stereo not given), for which the z-score was determined as 0.732.

As to `CCCCN(C)CCNC(=O)Cn1ncc2c(=O)oc3ccc(C)cc3c21`, the z-score is -0.464.

The compound `Nn1c(SCC(=O)N2CCOCC2)nnc1-c1ccccc1Cl` returned a z-score of 0.0431.

Consider `CCC1S/C(=N/N=C/c2cccs2)NC1=O` (stereo not given), for which the z-score is -0.998.

For the compound `Cc1ccc(Oc2cnc3ccccc3n2)cc1`, the z-score was -0.0185.

Compound `COc1ccc2nc(N=Nc3ccc(N(C)C)cc3)sc2c1` came in with a z-score of 0.141.

`O=C(N/N=C/c1ccccc1OC(=O)c1ccc2c(c1)OCO2)c1ccccc1`: the z-score was -0.24.

`COc1ccc(OC)c2[nH]c(=O)c(CCNS(=O)(=O)c3ccccc3)cc12` showed a z-score of 0.221.

In the case of `CN(C)CCNC(=O)c1ccc(CS(=O)(=O)c2ccc(Br)cc2)o1`, the z-score was determined as 0.348.

Consider `O=C(COC(=O)Cn1cnc2ccccc21)NCCc1ccc(Cl)cc1`, for which the z-score is -0.0052.

`CCc1ccc(N=c2c([N+](=O)[O-])nn(-c3ccccc3)n2O)cc1`: the z-score is -0.133.

Regarding `CCOC(=O)N1CCN(C(=O)c2ccccc2NC(=O)c2ccc(Br)cc2)CC1`, the z-score is -0.377.

On to `COc1cc(CC(=O)OCC(=O)Nc2ccc(S(=O)(=O)N3CCCC3)cc2)cc(OC)c1OC`, for which the z-score was -0.47.

On to `COc1cccc(CN(C)C(=O)Nc2cccc(C(F)(F)F)c2)c1OC`, for which the z-score was -0.116.

On to `CC1CCN(S(=O)(=O)c2ccc3[nH]c(=O)cc(C(=O)O)c3c2)CC1`, for which the z-score stood at 0.0457.

`N#C/C(=C\c1ccc(O)c(O)c1)S(=O)(=O)c1ccccc1`: the z-score is -0.0806.

Regarding `CCOC(=O)C1CCCCN1Cc1cccc(C(F)(F)F)c1` (stereo not given), the z-score was -0.379.

Turning to `CC1=C(C(N)=O)C(c2ccccc2)n2nc(-c3cccc(C)c3)nc2N1` (stereo not given), the z-score was -0.467.

With `COc1ccccc1NC(=O)CN1CCN(C(=O)c2ccco2)CC1`, the z-score was -0.0879.

Consider `Cc1ccc(O)c(-c2cc(C(=O)Nc3ccc(S(=O)(=O)N4CC(C)OC(C)C4)cc3)[nH]n2)c1` (stereo not given), for which the z-score was -0.527.

Take `Cc1ccc(CSc2nnc3c(n2)OC2(Nc4ccccc4-3)C(=O)Nc3ccc(F)cc32)cc1` (stereo not given): the z-score was 0.032.

`COC(=O)c1sc(NC(=O)c2cnccn2)c(C(=O)OC)c1C` registered a z-score of 0.358.

Consider `Cc1cc(C(=O)NCCCN2CCCC2=O)cs1`, for which the z-score is 0.26.

On to `O=C(Nc1ccc(Cl)cc1C(=O)N1CCOCC1)c1cccc([N+](=O)[O-])c1`, for which the z-score stood at 0.0715.

Take `O=C(CSc1nnc(C2CC2)n1-c1ccccc1)NCCc1ccc(F)cc1`: the z-score was -0.612.

The compound `Cc1cccc(NC(=O)CSc2nc(C)nc3c2c(=O)n(C)c(=O)n3C)c1` returned a z-score of 0.113.

Take `CC(C)NC(=O)c1ccc2c(c1)nnn2C`: the z-score is 0.0176.

Consider `Cc1cc(NC(=S)NC(=O)CC(C)C)ccc1Br`, for which the z-score was 0.227.

On to `O=C(c1ccc(CN2CCc3ccccc3C2)cc1)N1CCN(c2ccc(F)cc2)CC1`, for which the z-score was -0.314.

On to `CCOC(=O)C(CC)Sc1nnc(COc2ccc(C)cc2)n1-c1ccccc1` (stereo not given), for which the z-score was active: -3.38.

On to `CCOc1ccc2oc(-c3ccccc3)c(C(=O)N3CCN(CCO)CC3)c2c1`, for which the z-score is -0.457.

`C=CCC1(O)CC(c2ccco2)NC(c2ccco2)C1CCC` (stereo not given) had a z-score of 1.08.

Turning to `O=C(NCC(O)CO)c1ccc2[nH]c3ccccc3c2c1` (stereo not given), the z-score was -0.419.

As for `O=C(Nc1ccccc1)N1CCCN(Cc2ccccc2F)C1`, the z-score stood at 0.97.

With `C=CCOc1nc2c(c(=O)n(C)c(=O)n2C)n1Cc1c(Cl)cccc1Cl`, the z-score is -1.34.

As to `C/C(=N\NC(=O)C(=O)Nc1cccc(Cl)c1)c1ccncc1`, the z-score was -0.155.

Compound `CC(CCc1ccccc1)NC(=O)c1cccnc1` (stereo not given) returned a z-score of 0.207.

Regarding `Cc1c(NC(=O)CSc2nnc(N)s2)c(=O)n(-c2ccccc2)n1C`, the z-score is -0.284.

For `CCN1CCN(CC(=O)c2c[nH]c3ccc(C)cc23)CC1`, the z-score is -0.0926.

On to `COc1ccc(C(C(=O)NC2CCCCC2)N(C(=O)Cc2c[nH]c3ccccc23)c2ccccc2C)cc1OC` (stereo not given), for which the z-score is -0.337.

As for `CCN1C(c2ccccc2)C(C)C(=O)C(C)C1c1ccccc1` (stereo not given), the z-score is -0.186.

Turning to `CCOc1cc(CNC(C)(C)CO)cc(Br)c1OCc1ccc(Cl)cc1Cl`, the z-score worked out at 0.463.

`Cc1ccc2occ(-c3nn[nH]n3)c(=O)c2c1` yielded a z-score of 0.366.

For the compound `Cc1noc(C)c1CSc1nnc(-c2ccccc2F)n1CCc1ccccc1`, the z-score is -0.0463.

On to `COCCn1c(SCC(=O)Nc2cc(C(C)(C)C)nn2-c2ccccc2)nnc1-c1ccncc1`, for which the z-score is -0.545.

As to `COc1ccc(-c2noc(-c3ccccc3C(=O)NCc3ccco3)n2)cc1OC`, the z-score is -0.78.

Regarding `CCOc1cccc(C(=O)NC(=S)Nc2cccc(NC(=O)c3ccccc3Cl)c2)c1`, the z-score is -0.0995.

Compound `CN1CCN(C(=O)c2ccccc2-c2nc(-c3ccc(Cl)cc3)no2)CC1` registered a z-score of 0.244.

For the compound `CN(C)c1ccc(-c2nnn(CC(=O)N3c4ccccc4CCc4ccccc43)n2)cc1`, the z-score is -0.231.

`O=c1ncn(-c2ccccc2F)c2ncccc12` came in with a z-score of 0.251.

Consider `COC(=O)c1c(NC(=S)Nc2ccc(CC(=O)O)cc2)sc(C)c1C`, for which the z-score was -0.197.

For `O=c1c(Cc2ccc(F)cc2)c(O)ccn1Cc1cccc(Cl)c1`, the z-score was -0.0328.

Consider `O=C(NCCN1C(=O)C2C3C=CC(C3)C2C1=O)N1CCCCC1` (stereo not given), for which the z-score is -0.0759.

Regarding `COc1cc(C(=O)OC(C)C(=O)NCC2CCCCC2)cc(NC(=O)c2ccco2)c1OC` (stereo not given), the z-score was -0.304.

Regarding `O=S(Cc1cc(Sc2ccccc2)nc(-c2ccccc2)n1)c1ccccc1` (stereo not given), the z-score is -0.92.

The compound `Cc1c(C(=O)OC(C)CCN(C)C)oc2ccccc12` (stereo not given) yielded a z-score of 0.326.

As for `COC(=O)c1cnn(-c2nc3c(C)cccc3s2)c1C`, the z-score is -0.0689.

As for `CCOC(=O)N1CCC(n2c(SCC(=O)Nc3nccs3)nc3ccsc3c2=O)CC1`, the z-score is -0.164.

`Clc1ccc(Cn2ncc3c(N4CCCCC4)ncnc32)c(Cl)c1` showed a z-score of 0.0977.
